Laboratory results taken from publication PMC6919601, “Identification of Plasmodium dipeptidyl aminopeptidase allosteric inhibitors by high throughput screening” (PLoS ONE, 2019).
The campaign covered roughly 110,000 compounds. About 230 (0.21%) showed an effect of 50% or more. This is one part of the list.

Molecular target: DPAP1 (Plasmodium falciparum, UniProt Q8IIJ9)
Test: primary screen, percent inhibition; read by cleavage of a fluorogenic dipeptide substrate; higher = more effect of the substance
Set-up: species or system P. falciparum D10 trophozoite lysates; single well
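Also: 30 min substrate incubation versus DMSO and 10 µM JCP410 controls.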

Sequence of DPAP1 (Q8IIJ9 whole entry, looked up): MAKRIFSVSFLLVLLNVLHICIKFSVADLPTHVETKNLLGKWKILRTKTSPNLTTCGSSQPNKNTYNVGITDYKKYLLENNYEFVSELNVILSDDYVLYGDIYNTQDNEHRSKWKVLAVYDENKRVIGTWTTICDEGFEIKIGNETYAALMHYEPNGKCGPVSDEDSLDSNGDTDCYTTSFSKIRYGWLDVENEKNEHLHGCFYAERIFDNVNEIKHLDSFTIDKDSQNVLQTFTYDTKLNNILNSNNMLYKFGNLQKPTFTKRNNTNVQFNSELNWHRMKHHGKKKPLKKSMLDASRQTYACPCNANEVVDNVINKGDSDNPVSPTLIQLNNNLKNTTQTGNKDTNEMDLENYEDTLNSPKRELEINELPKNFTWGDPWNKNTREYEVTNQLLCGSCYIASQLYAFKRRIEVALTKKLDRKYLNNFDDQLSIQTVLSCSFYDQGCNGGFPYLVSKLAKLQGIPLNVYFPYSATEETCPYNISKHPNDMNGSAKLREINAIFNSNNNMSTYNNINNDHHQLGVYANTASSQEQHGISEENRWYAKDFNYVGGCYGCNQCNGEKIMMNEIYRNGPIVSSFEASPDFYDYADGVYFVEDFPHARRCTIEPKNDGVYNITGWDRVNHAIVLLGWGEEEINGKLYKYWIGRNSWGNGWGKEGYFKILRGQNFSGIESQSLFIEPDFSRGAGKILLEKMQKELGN

Row | Structure (SMILES) | % Inhibition @ 10 uM
1 | CCCS(=O)(=O)c1c(S(=O)(=O)CCC)c2ccccn2c1C(=O)OC | -7.57%
2 | O=C(Nc1ccn(Cc2ccccc2Cl)n1)C1CCC1 | -1.96%
3 | Oc1nc2ccc(Oc3ccc4nc(O)c(O)nc4c3)cc2nc1O | -7.6%
4 | Cc1ccc(/C(O)=C(\C#N)c2nc(O)c3ccccc3n2)cc1 | 15.8%
5 | Cc1ccc(CCNC(=O)CCN2N=C(c3ccccc3)CCC2=O)cc1 | -0.0542%
6 | N#Cc1c(Nc2ccccc2)sc(C(=O)c2ccc(F)cc2)c1N | -4.43%
7 | CCOc1ccc(CSc2nnnn2-c2ccccc2F)cc1OCC | -4.35%
8 | C=Cc1ccc(Cn2c(C(=O)OC)cc3sccc32)cc1 | -5.2%
9 | CCc1nc2nc(C)c(NS(=O)(=O)c3ccc(CC(C)C)cc3)c(O)n2n1 | -4.47%
10 | CCOc1cccc(NC(=O)C2CC(=O)N(c3ccc(F)cc3)C2)c1 (stereo not shown) | 11.1%
11 | Cc1nnc2c(NC3CCN(Cc4ccccc4)CC3)nc3ccccc3n12 | -3.8%
12 | COCCCNC1=NS(=O)(=O)C(c2ccc(C)cc2)=C1C | -4.68%
13 | COc1ccc(/C=C2\CN(C)CC3=C2OC(N)=C(C#N)C3c2ccc(OC)c(OC)c2)cc1OC (stereo not shown) | 20.7%
14 | O=C(COc1ccccc1Cl)Nc1cc(-c2ccccc2)no1 | 0.248%
15 | O=[N+]([O-])c1ccc(S(=O)(=O)N2CCN(Cc3ccccc3)CC2)cc1 | -0.687%
16 | CCOC(=O)c1c(C)[nH]c(C)c1S(=O)(=O)Nc1cc(C)ccn1 | -1.24%
17 | CCc1c(C)nc2sc(C(N)=O)c(N)c2c1C | 13.6%
18 | CC(=O)Nc1ccc(S(=O)(=O)N2CCN(S(=O)(=O)c3ccccc3)CC2)cc1 | 0.24%
19 | Cc1cc(OCC(=O)Nc2ccc(S(N)(=O)=O)cc2)ccc1Br | 0.727%
20 | CN(Cc1ccco1)S(=O)(=O)c1ccc(CN2C(=O)c3cccnc3C2=O)cc1 | -4.08%
21 | COc1cc(OC)c(OC)cc1CN1CCN(Cc2ccc(C)cc2)CC1 | 0.635%
22 | CCOC(=O)c1c(NC(=O)c2ccccc2)sc(C(C)=O)c1C | -1.29%
23 | Cc1ccc(C2(CC#N)CCOC(C)(C)C2)cc1 (stereo not shown) | 4.22%
24 | Cc1cccc(CN(C)CCN(C)C)c1 | -2.18%
25 | O=C(Nc1c(Cl)cccc1Cl)C(c1ccccc1)c1ccccc1 | 0.986%

Row | Structure (SMILES) | % Inhibition @ 10 uM
26 | COc1ccc(Nc2nc3nonc3nc2N2CCCCC2)cc1 | -1.64%
27 | Cc1ccc(-c2cc3nc(-c4ccncc4)cc(C(F)(F)F)n3n2)cc1 | 0.627%
28 | Cn1cccc1C=C1C(=O)c2ccccc2C1=O | 3.27%
29 | CNC(=O)c1cc2c(=O)n3cc(C)ccc3nc2n(C2CCCCC2)c1=N | -1.47%
30 | CCOc1cc(/C=C2/SC(=O)N(CC(=O)Nc3ccc(OC)cc3)C2=O)ccc1O | 21.2%
31 | CCOc1ccc(C(=O)N2CCN(C(=O)c3ccc(OCC)cc3)CC2)cc1 | 4.37%
32 | CN(C)C(=O)CSc1nc2ccccc2n1Cc1ccccc1 | 1.28%
33 | COc1ccc(CNC(=O)C2CCN(c3ncnc4c3nc3n4CCCCC3)CC2)cc1 | 5.05%
34 | COc1ccc(C2=N/C(=C\c3ccc(F)cc3)C(=O)O2)c(Cl)c1 | 3.58%
35 | Cc1ccc(C2CC(=O)N3CN(Cc4cccnc4)CSC3=C2C#N)cc1 (stereo not shown) | 43.8%
36 | S=C(Nc1ccc2nccnc2c1)N1CCOCC1 | -6.7%
37 | COc1ccccc1N1CCN(CC(=O)Nc2cc(N(C)C)nc3ccccc23)CC1 | 3.01%
38 | Cc1cc(C)c(NC2=NCCCS2)c(C)c1 | 2.27%
39 | COc1ccc(Br)cc1CNCc1c(C(=O)O)n(Cc2ccc(F)cc2)c2ccccc12 | 0.896%
40 | CCCN1C/C(=C\c2ccc(O)c(OC)c2)C(=O)/C(=C/c2ccc(O)c(OC)c2)C1 | 1.21%
41 | COc1ccc(NC(=O)C2=C(C)Nc3nc(-c4ccccc4)nn3C2c2ccc(O)cc2)cc1 (stereo not shown) | -7.96%
42 | O=C(c1ccc([N+](=O)[O-])cc1Cl)N1CCN(c2ccc(F)cc2)CC1 | 7.53%
43 | O=C(NCc1ccccc1)/C(=C\C=C\c1ccccc1)NC(=O)c1ccccc1 | -1.29%
44 | COc1ccc(CN(Cc2ccccc2)S(=O)(=O)c2c(C)ccc3nsnc23)cc1 | 3.38%
45 | CCC/N=c1\c(NC(=O)c2ccccc2C)c(O)oc2ccccc12 | 4.45%
46 | O=C(NCCc1nc(-c2ccccc2)cs1)c1ccc(Br)cc1 | 0.503%
47 | Cc1[nH]c2ccc(C(=O)NC3CCC(C)CC3)cc2c1C (stereo not shown) | 2.12%
48 | O=C(NCCCN1CCOCC1)C1CCN(c2ncnc3c2nc2n3CCCCC2)CC1 | 2.59%
49 | CC1(C)CC(NC(=O)C23CC4CC(CC(C4)C2)C3)CC(C)(C)N1 | 0.76%
